Here are results for 43 compounds from PMC4336329 (PLoS ONE, 2015).

The whole screen tested about 310,000 compounds, of which about 2,200 (0.71%) showed an effect of 50% or more. The effect is printed as a negative number. Some of the results follow.

In this assay the target is human ether-à-go-go-related gene (hERG) potassium channel (human, UniProt Q12809). Description: primary screen, population patch clamp on CHO cells stably expressing hERG.
human ether-à-go-go-related gene (hERG) potassium channel, sequence (Q12809 whole entry, looked up): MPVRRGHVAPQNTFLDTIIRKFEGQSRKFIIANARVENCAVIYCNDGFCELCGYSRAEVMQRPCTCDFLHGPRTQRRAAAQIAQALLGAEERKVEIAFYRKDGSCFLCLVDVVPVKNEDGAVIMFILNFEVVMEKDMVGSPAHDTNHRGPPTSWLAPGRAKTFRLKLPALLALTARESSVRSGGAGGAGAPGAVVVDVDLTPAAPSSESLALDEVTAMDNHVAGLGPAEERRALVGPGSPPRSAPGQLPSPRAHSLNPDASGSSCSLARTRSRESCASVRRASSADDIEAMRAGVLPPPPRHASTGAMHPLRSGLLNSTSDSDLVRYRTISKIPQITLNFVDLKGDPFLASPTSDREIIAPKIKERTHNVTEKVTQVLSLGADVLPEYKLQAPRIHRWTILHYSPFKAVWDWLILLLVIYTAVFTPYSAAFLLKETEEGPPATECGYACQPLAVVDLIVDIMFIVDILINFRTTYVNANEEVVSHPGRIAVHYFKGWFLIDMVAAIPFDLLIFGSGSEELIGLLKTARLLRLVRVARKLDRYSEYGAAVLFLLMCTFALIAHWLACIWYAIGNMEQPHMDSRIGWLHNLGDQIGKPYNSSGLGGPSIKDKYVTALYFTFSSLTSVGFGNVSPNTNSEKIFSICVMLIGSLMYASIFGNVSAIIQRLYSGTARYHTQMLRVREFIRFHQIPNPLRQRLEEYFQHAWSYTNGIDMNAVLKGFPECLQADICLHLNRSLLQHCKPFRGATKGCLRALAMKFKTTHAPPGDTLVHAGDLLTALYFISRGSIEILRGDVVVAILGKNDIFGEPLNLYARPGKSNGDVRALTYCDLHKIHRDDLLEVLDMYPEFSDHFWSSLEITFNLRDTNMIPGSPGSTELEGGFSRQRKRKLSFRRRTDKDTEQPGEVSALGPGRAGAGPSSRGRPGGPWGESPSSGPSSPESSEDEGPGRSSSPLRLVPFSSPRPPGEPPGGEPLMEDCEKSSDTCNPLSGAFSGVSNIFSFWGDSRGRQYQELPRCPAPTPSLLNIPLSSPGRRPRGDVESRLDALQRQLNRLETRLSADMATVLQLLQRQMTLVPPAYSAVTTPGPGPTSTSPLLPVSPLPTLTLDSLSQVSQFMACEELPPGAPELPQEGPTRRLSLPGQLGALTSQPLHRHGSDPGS
`Cc1cc(Nc2ccccc2)nn1C(=O)c1ccc([N+](=O)[O-])cc1`: the “hERG current change (%, negative = inhibition) at 1uM” value was 11.9%.
For `N#CCCOC1(C#CCN2CCCC2)CCCCC1` the value was 17.5%.
The result for `O=C(CN1CCN(c2nc(-c3ccccc3)cs2)CC1)NNC(=O)c1ccco1` reads 12.3%; that for `CS(=O)(=O)N1CCN(c2ccccc2NC(=O)c2cccc3ccccc23)CC1`, 9.48%.
With `COC(=O)Oc1ccc(/C=N/NS(=O)(=O)c2ccccc2)cc1OC`, the “hERG current change (%, negative = inhibition) at 1uM” value was 12.6%.
In the case of `Cc1ccc(C(=O)c2coc3ccc(O)c(CN4CCN(C)CC4)c23)cc1`, the “hERG current change (%, negative = inhibition) at 1uM” value is -25.5%.
The result for `O=C(CSc1nc2ccccc2o1)N/N=C/c1ccco1` reads 15.4%.
For `COc1cccc(N(C(=O)Cn2nnc(-c3ccc(Cl)cc3)n2)C(C(=O)NCC2CCCO2)c2ccc(C)cc2)c1` (stereo not shown) the value was 17.4%; for `CC12CCC(C1)C(C)(C)C2OC(=O)c1ccccc1C(=O)O` (stereo not shown), 11.4%.
For `O=C(COc1ccccc1[N+](=O)[O-])N/N=C/c1ccc(OC(=O)c2ccco2)cc1` the value was 2.95%; for `CCOc1ccc(Cn2c(=O)sc3ccccc32)cc1`, 14%.
As to `COC(=O)[C@@H]1C[C@@]2(O)[C@H](O)[C@H](O)[C@H](O)C[C@H]2N1Cc1cccc2ccccc12`, the “hERG current change (%, negative = inhibition) at 1uM” value is given as 10.9%.
For `COc1ccc(NC(=O)Cn2c(=O)cnc3ccccc32)cc1S(=O)(=O)N1CCCCC1` the value was 6.72%.
Regarding `CCOC(=O)CSc1nc2ccccc2c(=O)n1CC1CCCO1` (stereo not shown), the “hERG current change (%, negative = inhibition) at 1uM” value amounted to 9.44%.
The result for `Cc1ccc(Cl)cc1NC(=O)CNC(=O)N1CC(=O)Nc2ccccc21` reads 5.73%.
For `O=C(O)c1cc(-n2nnnc2SCc2ccc([N+](=O)[O-])cc2)ccc1Cl` the value was 6.05%; for `O=C(CSc1nnc(-c2ccccc2Cl)o1)Nc1ccc2c(c1)OCCO2`, 7.9%.
For `CCO[C@H]1OC(C(=O)NCc2ccccc2)=C[C@@H](c2ccc(Br)cc2)[C@@H]1CCCO` the value was 4.51%; for `CCN(CC)CCN1C(=O)C(=O)/C(=C(/O)c2ccc(S(=O)(=O)N3CCOCC3)cc2)C1c1ccc(C)cc1` (stereo not shown), 15.4%.
Take `CC(C)(C)NC(=O)CSC(=Nc1cccc(F)c1)NC#N`: the “hERG current change (%, negative = inhibition) at 1uM” value is recorded as 13.8%.
On to `COCCN(Cc1cc2cc(C)ccc2n2nnnc12)C(=S)Nc1ccc(C)cc1`, for which the “hERG current change (%, negative = inhibition) at 1uM” value was found to be 6.71%.
For `COc1ccc(OC)c(NC(=S)NCc2ccco2)c1` the value was 6.27%; for `CCN(CC)c1ccc2nc3ccccc3[n+](CC)c2c1.[I-]`, -2.6%; for `O=C1CC(c2ccc3c(c2)OCCO3)Oc2ccc([N+](=O)[O-])cc21` (stereo not shown), 4.23%.
Consider `Cc1cc2nc(/C=C/c3nc4cc(C)c(C)cc4[nH]3)[nH]c2cc1C`, for which the “hERG current change (%, negative = inhibition) at 1uM” value came out at 18.9%.
The result for `COc1cc(CCN2C(=O)c3cccc4cccc(c34)C2=O)c(S(=O)(=O)N2CCC(C)CC2)cc1OC` reads -4.54%; that for `CN1/C(=C\C=Nc2ccc3ccccc3c2)C(C)(C)c2ccccc21`, -75.1%.
The result for `CC(=O)c1c(O)cc(C)oc1=O` reads 20.5%; that for `CCCCN1CCNC[C@@H]1c1ccccc1`, 10.2%; that for `COc1ccc(CCNC(=O)COC(=O)c2cc(OC)c(OC)cc2OC)cc1OC`, 5.82%.
The result for `CC(c1ccccc1)n1c(S(=O)(=O)O)nc2ccccc21` (stereo not shown) reads 13.3%.
On to `CN(C)/C=C/C(=O)c1cnc(-c2ccccc2Cl)s1`, for which the “hERG current change (%, negative = inhibition) at 1uM” value is -10.7%.
For `CCCc1noc2c1C(c1cc(Br)ccc1F)C(C#N)=C(N)N2` (stereo not shown) the value was 1.3%; for `CCOc1ccc(NC(=O)c2oc3ccccc3c2NC(=O)CC)cc1`, -6.74%; for `COc1cc(S(=O)(=O)N2CCN=C2c2ccccc2)c(OC)cc1Cl`, 26.3%.
The result for `CNc1c2c(nn1C)CCCC2` reads 17.5%.
The result for `O=C(CCn1c(=O)[nH]c2ccsc2c1=O)N1CCN(c2ccc([N+](=O)[O-])cc2)CC1` reads 0.952%; that for `COc1ccc(-c2n[nH]c(=S)n2Cc2ccccc2)cc1OC`, 11.5%.
`CCC(C)NC(=O)C(=O)NCc1ccccn1` (stereo not shown): the “hERG current change (%, negative = inhibition) at 1uM” value is given as 10.7%.
As to `COc1ccc(NC(=O)Nc2ccc(F)cc2F)cc1`, the “hERG current change (%, negative = inhibition) at 1uM” value turned out to be 7.66%.
Take `COc1cc(NC(=O)c2cccs2)c(OC)cc1NC(=O)CCn1nnc2ccccc21`: the “hERG current change (%, negative = inhibition) at 1uM” value was -10.6%.
For `CCn1c(SCC(=O)Nc2ccc3c(c2)oc2ccccc23)nnc1-c1ccc(N)cc1` the value was 9.88%; for `C/C(CCc1ccc2c(c1)OCO2)=N\N=C1\NC(=O)CC(C(=O)Nc2ccccc2F)S1` (stereo not shown), 12.2%.
